These results are taken from the RNAGym collection of RNA variant scans (doi:10.7554/elife.90254).

Read counts are not given, so values of variants with three or more changes are uncertain.

To fix the notation:
B1: LINE1-full (parent)
chain: UACGUAGGUGGUUUUCCCCUGAUAGUGCUAAGGGGGCCUGGAAGUUUGGACUGGGCAGAGCUCAACACAGCGUGGCAAAGUGGCUGUGGCUAGACUGCCUCUCUGGAUUCCUCGUCACUCAGCAGGGCAUCUCUGAGAGAAAUGCC

In the data set the parent is B1. Description: self-cleavage, relative activity (ratio to wild type); higher = more cleavage; in vitro, sequencing; the parent is a self-cleaving ribozyme.
For the variant U20C U73A A79U, the self-cleavage turned out to be 2.99.
For the variant G21A U85C A136U, the self-cleavage amounted to 0.18.
In the case of U20C U96A G114U A117U A138G A140G A141G it was 0.05; in that of A22G A59G A141G, 0.12.
The value for U20C U26A A59G was 0.3.
For G21A U47C A121G, the self-cleavage was 1.99.
In the case of U20C U39G U62A U85C A136G it was 0.22; in that of U20C U73C A94U U104C U132C, 0.54.
Regarding G21A U115A U130C, the self-cleavage worked out at 1.73.
In the case of U20C U73C A107G it was 1.02; in that of G21A U52C G127C, 0.88.
As for U20C U85C A142G, the self-cleavage came out at 0.13.
For U20G U45C A67G A107G, the self-cleavage is 0.
U20C U102C A129U: the self-cleavage came out at 1.95.
For G21A A67G A117C G139U, the self-cleavage came out at 0.18.
For the variant U20C U87C A117U, the self-cleavage came out at 0.26.
Regarding A22C A31U A59G U73A, the self-cleavage was 0.38.
On to U20G U73C U119A, for which the self-cleavage is 0.5.
Take A22G A57G A94U: the self-cleavage was 0.
Take A22G A42C A77U: the self-cleavage amounted to 1.09.
Turning to U20G U104C U112A, the self-cleavage is 2.24.
The value for U20G U102C A121G A136G A138U was 1.45.
The value for A22G A31G A57U A69G U73A A78G was 0.
For G21A U87C G89A U102C A121U, the self-cleavage was 0.05.
The value for U20C U73A A117U U119A G144A was 2.06; that for U20G U26A U39C A65G was 0.35; that for U20C U62A A77G was 0.
Turning to U20C U104A G144A, the self-cleavage came out at 2.16.
The value for U20C G83A U102C was 0.81; that for U20C U39C U119A was 1.25; that for U20C U39C U73C U134C was 1.15.
With G21A U46C U134C, the self-cleavage came to 1.15.
The value for G21A A77G U104C U109C U115A was 1.08.
For the variant U20C U52C A69G, the self-cleavage came out at 0.31.
As to A22G A67G G97A, the self-cleavage was 0.04.
With A22G A50U A138G A141G, the self-cleavage was found to be 0.62.
As to U20C U39A U104A, the self-cleavage turned out to be 1.29.
U20G A31C A64G: the self-cleavage stood at 0.77.
In the case of U20C U87A A138U, the self-cleavage is 0.07.
In the case of G21U G33U U73C it was 1.67; in that of U20C U62C A140G, 0.1.
As for U20C U26A A77U, the self-cleavage turned out to be 0.61.
U20C U47C U81C: the self-cleavage stood at 1.76.
In the case of U20C U47C U85A U130C it was 0.25; in that of U20C U26A U73A U109C A124G, 0.5; in that of U20G U134C A142G, 0.62.
U20G G32A A124U: the self-cleavage is 0.79.
Take A22G A64U U108C U119C A121G: the self-cleavage is 0.66.
For U20C U39A U87A, the self-cleavage was determined as 0.16.
As to U20C U73A A129G, the self-cleavage is 1.99.
On to A22G A42G A57G, for which the self-cleavage came out at 1.57.
In the case of A22G A50G A136G, the self-cleavage was determined as 1.02.
As for A22G A43G A57U G88A, the self-cleavage turned out to be 0.06.
For U20C U47A G126A, the self-cleavage amounted to 1.42.
Regarding U20C U39A A50G C120U, the self-cleavage was 0.9.
As to A22G A50U C116A, the self-cleavage was 0.38.
Consider U20G U26C A30G U52A, for which the self-cleavage is 1.72.
With U20C U47C G88U, the self-cleavage is 0.02.
Consider U20C U87C U115C U130A, for which the self-cleavage amounted to 0.9.
In the case of A22G A50G A69G A77U C95U A107U it was 0.07.
Turning to U20C G80A A107G, the self-cleavage was 0.71.
The value for G21A U23C G40U U45C A69G U85G was 0; that for G21U A31G U104A was 0.72.
In the case of G21U U130C A138G it was 2.16; in that of A22G A24U G86A U87G, 0; in that of G21C C37U U115C, 1.46.
For A22G A65G U119C, the self-cleavage worked out at 0.
The value for U20C U134C U143C was 1.33; that for G21A U45A U91C was 0.28.
With U20C U39A G53A U102C, the self-cleavage was found to be 0.94.
On to A22G A57G G89A U119C A124G, for which the self-cleavage stood at 0.16.
Take U20C U29C U119A A124G A140G: the self-cleavage worked out at 0.
Take G21U A57C U104A A140G: the self-cleavage came to 0.04.
In the case of A22G A42G A117C, the self-cleavage came out at 1.27.
On to U20C U23C U47A A117U, for which the self-cleavage came out at 1.47.
As to U20C U85C U115G, the self-cleavage came out at 0.
A22G A64U A79U: the self-cleavage was 0.79.
With A22C U23A U115C A129G, the self-cleavage is 2.51.
In the case of U20G U39C U81C C103U U119C it was 1.02; in that of U20C U23A A69G, 1.23.
With U20C U62C U81A A124G, the self-cleavage worked out at 0.
On to A22G A43G U108C, for which the self-cleavage is 0.
Regarding U20G U108C U109A U119A G125U, the self-cleavage worked out at 2.25.
With U20G A78G A142G, the self-cleavage is 0.64.
Consider U20C U29A U132A, for which the self-cleavage is 1.6.
In the case of A22G A65G U91A, the self-cleavage came to 0.18.
As for A22C U45C A77U, the self-cleavage was found to be 1.13.
Take U20C U46C A77U U87A: the self-cleavage stood at 0.13.
In the case of G21U C76A A107G A141G U143A, the self-cleavage was 1.89.
The value for A22G A30G U47A was 0.89.
In the case of U20C U26C U143C, the self-cleavage turned out to be 1.8.
On to A22G A24G U52C A107G, for which the self-cleavage was 0.
For the variant U20C U29G A65U, the self-cleavage is 0.32.
In the case of G21A U46G C76G U81A A142G, the self-cleavage was 2.5.
U20C U46C U52C U134C: the self-cleavage was 2.55.
Turning to U20C U45A A65U A77U, the self-cleavage turned out to be 0.2.
For A22G A42G A124C, the self-cleavage turned out to be 0.84.
G21A A30G U100A A140G: the self-cleavage turned out to be 0.63.
In the case of U20C G60A A79G it was 0; in that of U20C U23C A79G U104A, 1.23.
The value for A22G A57G A64G was 0.43; that for U20C U109C A140G was 0.52; that for A22G A42G U73A U85G U109A C111U was 0.17.
As for G21A A69G A129G, the self-cleavage is 0.38.
Consider U20G G33U A78G A140G, for which the self-cleavage came to 0.89.
Regarding U20G A94G U96G, the self-cleavage was 0.63.
For U20C U26C A77G A142G, the self-cleavage amounted to 1.45.
Take G21U A64G A142G: the self-cleavage amounted to 0.11.
In the case of U20C U26C U104C U143A it was 2.19.
U20C G60A A94G A124G G126A: the self-cleavage came to 0.04.
Turning to G21A G25A U52A A59U C131U, the self-cleavage was 0.43.
Turning to U20C U47A A77G A142C, the self-cleavage worked out at 1.89.
Take U20C U26A A43G A92G: the self-cleavage turned out to be 0.
For G21A U81A A117G, the self-cleavage was 2.07.
U20C U26C A77U: the self-cleavage is 1.74.
Take U20C U45A A50G A142G: the self-cleavage was 0.84.
As to U20C U45C U47G A65U G74A A121G A124G, the self-cleavage worked out at 0.11.
With U20C U85A A92G U119C, the self-cleavage was determined as 0.
The value for U20C G126A A138U was 1.87.
For U20C U52A G74A A117G A141G, the self-cleavage turned out to be 1.28.
For the variant A22G A50G A59G A138U, the self-cleavage came out at 0.
For A22G A31G A64U U96A U115C, the self-cleavage is 0.
A22G A42G A50G U85C: the self-cleavage worked out at 0.
The value for G21A A77C A78G was 1.7.
In the case of U20C U39A C146U it was 1.49.
Consider U20G A79G A92G, for which the self-cleavage was found to be 0.
In the case of A22G A67G U112C A141G C145U it was 0.
Turning to U20G A57U A92G U115A U134A A142G, the self-cleavage was 0.24.
With G21A G74A A121G A138G A141C, the self-cleavage amounted to 0.69.
U20C U23C A43U: the self-cleavage is 1.97.
The value for G21A G60C C146A was 0.05.
As for G21U U85G G125A, the self-cleavage worked out at 0.13.
For the variant A22G A43U A65G, the self-cleavage stood at 0.
As for A22G A30U A65G, the self-cleavage is 0.23.
In the case of A22G A43U G82A G88A U108C, the self-cleavage was found to be 0.04.
In the case of A22G A30U U104C it was 1.31; in that of G21A A42G U96A U130C U132C, 0.07.
Turning to G21A A77U U87C, the self-cleavage is 0.08.
As to A22G A57U A64U, the self-cleavage turned out to be 0.
In the case of G21A A77G G80U U85C A138U it was 0.09; in that of U20C U52A A140G, 1.5; in that of U20C G54A G125U, 0.39.
Regarding A22G A57G A140G, the self-cleavage was 0.55.
The value for A22G A42U U108C U132C was 0.8; that for A22G A42U U52C A57G was 0.54; that for U20G A65U A107G A140U was 0.39.
U20C U119A A140U: the self-cleavage is 1.66.
As for U20C G106A U115C U134A A141G, the self-cleavage came out at 1.88.
In the case of G21A A67C A92U U108C C120G it was 0; in that of G21U C113A A136G, 1.67.
Regarding U20C U39C U132C A140G, the self-cleavage is 1.38.
Regarding U20C U85A U143C, the self-cleavage was 0.13.
For the variant G21A A67G C90U, the self-cleavage is 0.
Consider U20G A77U G93A U104C, for which the self-cleavage came out at 0.07.
For U20C U119C A124U, the self-cleavage was found to be 1.33.
Take U20C U73C A77U: the self-cleavage stood at 1.84.
Turning to U20C U62C U73A A121U, the self-cleavage worked out at 0.06.
As to U20C U45A U109A, the self-cleavage amounted to 1.17.
For the variant U20C G54A C71U A129U, the self-cleavage was 0.21.
In the case of A22C A140G A141G it was 1.96; in that of A22G A50G C128U, 0.55.
The value for A22G A31G G34A U109C A121G A129G was 0; that for U20G U81C G127A A129U was 0.48; that for G21A A59U A67U was 0.06.
On to U20C U81A U119A, for which the self-cleavage amounted to 2.27.
Take G21A U45C C56U: the self-cleavage came out at 0.1.
The value for U20C U100A A142G was 0.5.
